Out of some 310,000 compounds screened, about 2,200 (0.71%) showed an effect of 50% or more. The effect is printed as a negative number. This is one part of the list.
Molecular target: human ether-à-go-go-related gene (hERG) potassium channel (human, UniProt Q12809)
Assay: primary screen, population patch clamp on CHO cells stably expressing hERG

Chain of human ether-à-go-go-related gene (hERG) potassium channel (Q12809 whole entry, looked up): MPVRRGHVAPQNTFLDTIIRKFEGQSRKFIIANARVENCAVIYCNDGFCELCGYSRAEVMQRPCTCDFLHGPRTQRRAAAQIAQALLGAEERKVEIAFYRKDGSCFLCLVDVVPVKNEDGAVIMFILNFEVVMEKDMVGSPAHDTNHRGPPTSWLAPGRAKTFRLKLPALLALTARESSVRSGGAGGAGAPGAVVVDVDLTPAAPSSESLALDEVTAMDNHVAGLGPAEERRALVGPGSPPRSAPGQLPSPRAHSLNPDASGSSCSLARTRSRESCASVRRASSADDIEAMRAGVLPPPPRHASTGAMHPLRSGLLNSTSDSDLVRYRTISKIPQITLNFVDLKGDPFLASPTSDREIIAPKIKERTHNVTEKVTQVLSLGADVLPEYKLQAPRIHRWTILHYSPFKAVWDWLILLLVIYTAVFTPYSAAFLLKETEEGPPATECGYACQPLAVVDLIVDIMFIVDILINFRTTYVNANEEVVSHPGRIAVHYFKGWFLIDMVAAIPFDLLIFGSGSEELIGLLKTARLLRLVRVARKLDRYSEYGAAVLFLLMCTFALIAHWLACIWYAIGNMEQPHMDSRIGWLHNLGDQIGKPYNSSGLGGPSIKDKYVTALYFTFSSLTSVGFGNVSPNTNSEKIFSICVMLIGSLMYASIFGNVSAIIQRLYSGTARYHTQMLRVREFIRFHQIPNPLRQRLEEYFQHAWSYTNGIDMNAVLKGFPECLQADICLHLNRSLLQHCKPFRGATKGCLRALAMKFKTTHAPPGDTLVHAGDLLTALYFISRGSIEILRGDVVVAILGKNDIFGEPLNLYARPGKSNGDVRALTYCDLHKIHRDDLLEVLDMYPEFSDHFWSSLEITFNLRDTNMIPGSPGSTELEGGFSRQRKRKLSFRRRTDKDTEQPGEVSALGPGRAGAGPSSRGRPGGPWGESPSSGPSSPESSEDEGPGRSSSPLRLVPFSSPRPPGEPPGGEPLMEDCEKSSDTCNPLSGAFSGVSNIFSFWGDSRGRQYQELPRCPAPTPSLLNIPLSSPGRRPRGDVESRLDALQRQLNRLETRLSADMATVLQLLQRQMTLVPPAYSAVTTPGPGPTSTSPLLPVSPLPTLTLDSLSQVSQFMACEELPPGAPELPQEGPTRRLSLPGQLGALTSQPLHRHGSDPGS

SMILES | hERG current change (%, negative = inhibition) at 1uM
CN(C)C(CNC(=S)Nc1ccc(F)cc1)c1cccnc1 (stereo not drawn) | 11.9%
C(=N\N=C\c1cccnc1)/c1cccnc1 | 3.67%
COc1cc(/C(C#N)=C/c2ccccc2)c([N+](=O)[O-])cc1OC | 7.93%
COc1ccc(C(CC(=O)N2CCN(c3ccccc3)CC2)c2c(O)cc(OC)cc2OC)cc1 (stereo not drawn) | 16.8%
O=C1C=C(c2cccc(OCc3ccccc3)c2)C[C@@H](c2ccc3c(c2)OCO3)C1 | 6.66%
Cc1c(N)cccc1-n1cnnn1 | 11.9%
CCCCOc1ccccc1C(=O)NNC(=S)NC(=O)c1ccccc1[N+](=O)[O-] | 4.47%
CN(CC(=O)NCc1cccnc1)S(=O)(=O)c1ccc2c(c1)c(=O)n(C)c(=O)n2C | 13.1%
COc1ccccc1NC(=O)CSc1nnc2ccc(-c3cccnc3)nn12 | -3.49%
Cc1nc(N)c(C#N)c(-c2ccccc2Cl)c1C | -2.2%
Cc1cc(/C([O-])=C(/C(=S)Nc2ccccc2)[n+]2ccccc2)c(C)n1-c1ccccc1 | 9.1%
CSc1nnc(C)c(/C=C/NOCc2cccc(F)c2)n1 | 12.1%
Cc1cc2ncn(S(=O)(=O)N(C)C)c2cc1C | 16.6%
CCc1ccc(-c2cn(C3CCCCC3)c(=S)[nH]2)cc1 | 7.85%
CCCCCOc1ccc(NC(=O)C(=O)NCCCn2ccnc2)cc1 | 2.16%
COc1ccc(N(CC(=O)Nc2ccccc2Cl)S(=O)(=O)c2ccc(C)cc2)cc1OC | 15.6%
CCOC(=O)c1cnc2c(C)c(Cl)ccc2c1Nc1ccc(S(=O)(=O)Nc2ncccn2)cc1 | 10.8%
C[C@@H](NC(=O)OC(C)(C)C)c1nnc(S(=O)(=O)Cc2ccccc2)o1 | 11.7%
CCOC(=O)CSc1nnc(NC(=O)c2ccco2)s1 | 12.4%
COC(=O)c1c(NC(=O)c2ccccc2)sc2c1CC(C)(C)OC2 | -12.3%
O=C(NCCc1ccc(F)cc1)C1CCCCC1 | 16.5%
C=CCN(CC=C)C(=O)C1CCN(S(=O)(=O)c2ccc(N3CCCC3=O)cc2)CC1 | 11.2%
Cc1ccc(NC(=O)c2cc(S(=O)(=O)N3CCC4(CC3)OCCO4)ccc2F)cc1 | 0.398%

SMILES | hERG current change (%, negative = inhibition) at 1uM
CN(C)C(=O)COn1c(SCC(=O)N(C)C)nc2ccccc2c1=O | 13.4%
Nc1cc(C(F)(F)F)ccc1N1CCOCC1 | 12%
O=C(NC1CCN(Cc2ccccc2)CC1)c1cc(Br)c(Br)[nH]1 | 9.79%
Cc1cccc(CNc2ncnc3ccc(-c4ccccc4Cl)cc23)c1 | 8.86%
Nc1c(Cl)cc(C2=NCCn3c2c2ccc(C(F)(F)F)cc2[n+]3[O-])cc1Cl | 0.491%
Cc1c(NC(=O)c2cc3c(=O)n4ccccc4nc3s2)c(=O)n(-c2ccccc2)n1C | 4.91%
CCN(CC(=O)Nc1c(F)cccc1F)C(=O)C1CCCN(C(=O)c2ccc(Cl)cc2)C1 (stereo not drawn) | -14.3%
Cc1c(C(=O)N2CCCC2)oc2c1-c1[nH]ncc1CC2 | 8.23%
O=C(Nc1nc2ccccc2[nH]1)C12CC3CC(CC(C3)C1)C2 | 4.17%
Cc1cc(Cl)ccc1OCC(=O)N/N=C/c1ccc(OC2OC(CO)C(O)C(O)C2O)cc1 (stereo not drawn) | 10.6%
Cc1cc(OC(=O)N2CCOCC2)cc(C)c1Cl | 6.6%
Cc1oc(-c2ccccc2)nc1C(=O)OCC(=O)NCc1ccccc1 | 10.8%
Cc1ccc(-n2cnc(=O)c3cccnc32)cc1 | 2.96%
Fc1ccc(CCN2CCN=C2Nc2ccccc2)cc1 | -14.8%
CCOC(=O)c1ccc(NC(=O)N2CCN(Cc3ccccc3)CC2)cc1 | 8.74%
CCCc1ccc(OCc2ccc(C(=O)Nc3cccc(C)n3)o2)c(OC)c1 | 10.4%
Cc1nc(C(=O)NNC(=O)Nc2ccccc2)cs1 | 12.5%
CCOc1ccccc1NC(=O)c1nc(S(=O)(=O)Cc2cccc(C)c2)ncc1Cl | -7.3%
O=C(OCc1nc2ccccc2[n+]([O-])c1C(=O)c1ccccc1)c1cccs1 | 9.75%
C=CCOn1c(=O)c(-c2ccc(OC)cc2)[n+]([O-])c2ccccc21 | 1.21%
O=c1cc(-c2ccccc2[N+](=O)[O-])oc2ccccc12 | 7.73%
CC(=O)CNc1ccc(S(=O)(=O)N/N=C/c2ccccc2)cc1 | 12.4%
